Assay results as given in PubChem BioAssay AID686970 (National Center for Advancing Translational Sciences (NCATS), 2013).
In all, about 360,000 compounds went through this assay and about 6,000 (1.7%) were called active. This list was built around the results that the source calls inconclusive (neither active nor inactive); the mix of calls is not that of the screen. Calls follow the shape of the dose curve; as a rule, active = well fitted cell-killing curve with a large enough effect; inconclusive = small, poorly fitted or top-dose-only effect, or effect the other way; inactive = flat fitted curve, though single readings scatter. No potency is given beside an inconclusive call; the fits are too rough.

Test: qHTS for induction of synthetic lethality in tumor cells producing 2HG: qHTS for the HT-1080-NT fibrosarcoma cell line;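 also: NT is the 2HG producing partner of a matched IDH1 knockdown line; nearly all actives have a fitted effect of over 55% in size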;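 as to activity, negative = less viability: 0% = DMSO-treated cells and -100% = media-only wells without cells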
Details: HT-1080-NT fibrosarcoma viability, CellTiter-Glo ATP luminescence, 48 h; activity, negative = less viability: at 46.1 µM (top of the series) unless noted
Outline: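 HT-1080-NT fibrosarcoma cells (2HG-overproducing), 750 cells/well in RPMI with 5% FBS, dosed after 2 h and incubated 48 h at 37C. CellTiter-Glo luminescence normalized to DMSO and no-cell wells; concentration-response curves fitted and classed.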
Potency is read from the fitted curve at half-maximal effect; tags tell the direction and shape of the fitted curve.

With `COc1ccccc1NC(=O)NC1(C(=O)N2CCOCC2)CCCCC1` as the compound, how does the Potency read?
Its Potency is “inactive”.

With `CCc1ccc2[nH]c3nc(N/N=C/c4ccc(O)cc4O)nnc3c2c1` as the compound, how does the Potency read?
The Potency was inconclusive [cytotoxic, partial curve].

For `Cc1ccc(Cn2c(C3CCCN3c3nc(-c4ccc(F)cc4)cs3)nc3cc(C(=O)NCCCO)ccc32)cc1` (centres undefined), which Potency is on record?
The Potency was inconclusive [cytotoxic, single point].

For `COc1ccccc1NC(=O)CC(=O)c1ccccc1`, which Potency is on record?
The Potency was inconclusive [rising, partial curve].

Which Potency does the source give for `O=C(CCc1nnc2ccc(N3CCCC3)nn12)Nc1ccc(F)c(F)c1` here?
Its Potency is inconclusive [rising, partial curve, poor fit].

Which Potency does the source give for `Cc1ccc(-c2cc(C(=O)NCc3ccccn3)c3ccccc3n2)cc1C` here?
Its Potency is inconclusive [cytotoxic, partial curve].

For `Fc1ccc(-c2nc3c4ccccc4ccn3c2Cc2ccccc2)cc1`, which Potency is on record?
The Potency was “inactive”.

Which Potency does the source give for `COc1cccc(-c2cccc(-c3nc(C(=O)NCc4ccc5c(c4)OCO5)cc4c3[C@H](CCO)N(S(=O)C(C)(C)C)C4)c2)c1` (some centres undefined) here?
Its Potency is inconclusive [cytotoxic, single point].

Which Potency does the source give for `CCC(CC)C(=O)N(C)c1c(C)nc2c(OCC(=O)N(C)C)cccn12` here?
The Potency was inconclusive [rising, single point].

With `O=C(Nc1ccc(O)cc1)c1ccc(NC(=O)C2CCCO2)cc1` (centres undefined) as the compound, how does the Potency read?
Its Potency is inconclusive [cytotoxic, partial curve].

With `CC(=O)c1cccc(Nc2c3c(nc4ccccc24)CCC3)c1` as the compound, how does the Potency read?
Its Potency is active: 5.8 µM.

For `Nc1ccn(CCCN2CCN(C(=O)C3CC3)CC2)c(=O)n1`, which Potency is on record?
The Potency was “inactive”.

For `OC(c1ccc(F)cc1)c1nc(-c2ccc(F)c(Cl)c2)cs1` (centres undefined), which Potency is on record?
The Potency was inconclusive [cytotoxic, single point].

For `O=C(CN1CCN(Cc2ccc(F)cc2)CC1)Nc1nc2ccccc2s1`, which Potency is on record?
The Potency was “inactive”.

For `COc1nc(N)nc(NC(=O)c2cccs2)c1N=O`, which Potency is on record?
Its Potency is active: 16.4 µM.

With `O=C(Nc1ccc(F)cc1)Nc1nnc(COc2ccccc2F)s1` as the compound, how does the Potency read?
The Potency was inconclusive [cytotoxic, partial curve].

With `COC(=O)C(Nc1ccccc1Cl)(c1cc(C)c(O)c(C)c1)C(F)(F)F` (centres undefined) as the compound, how does the Potency read?
Its Potency is inconclusive [cytotoxic, single point].

Which Potency does the source give for `O=C(Cn1nc(Cc2cccnc2)c2ccccc2c1=O)NCc1ccc(F)cc1` here?
Its Potency is “inactive”.

Which Potency does the source give for `Cc1ccc(C(=O)Nc2ccc(C(=O)O)cc2)cc1S(=O)(=O)Nc1cccc([N+](=O)[O-])c1` here?
The Potency was inconclusive [rising, single point].

For `Cc1ccccc1Nc1nc(N)nc(COC(=O)[C@@H](NC(=O)c2c(F)cccc2F)C(C)C)n1`, which Potency is on record?
The Potency was “inactive”.

For `CCC1=Nc2cc(C(=O)NCCCOC)ccc2Sc2ccccc21`, which Potency is on record?
The Potency was active: 0.651 µM.

For `CNc1ncnc2c1ncn2[C@H]1CN(Cc2ccccc2)C[C@@H](CO)O1`, which Potency is on record?
The Potency was inconclusive [rising, single point].

Which Potency does the source give for `CS(=O)(=O)c1ccc2nc(NC(=O)c3cc([N+](=O)[O-])cc([N+](=O)[O-])c3)sc2c1` here?
The Potency was “inactive”.

With `C=C(C(=O)c1ccccc1)C(CC(=O)c1ccccc1)c1ccccc1` (centres undefined) as the compound, how does the Potency read?
Its Potency is inconclusive [cytotoxic, full curve].

With `Cc1cc(C(=O)Cn2ncc(Cl)c(Cl)c2=O)c(C)n1CC(F)(F)F` as the compound, how does the Potency read?
Its Potency is active: 8.2 µM.

With `Cc1ccccc1C(=O)N=c1sccn1C` as the compound, how does the Potency read?
Its Potency is “inactive”.

With `COc1cc(OC)c(N(C)S(=O)(=O)c2cccc(C(=O)NCc3cccs3)c2)cc1Cl` as the compound, how does the Potency read?
Its Potency is “inactive”.

With `Cc1ccc(S(=O)(=O)N(C)C[C@@H]2Oc3ccc(NC(=O)CCC(F)(F)F)cc3CC(=O)N([C@@H](C)CO)C[C@@H]2C)cc1` as the compound, how does the Potency read?
The Potency was active: 2.06 µM.

With `CN(CC(=O)Nc1ccc(Cl)cc1)C(=O)CCc1c[nH]c2ccccc12` as the compound, how does the Potency read?
Its Potency is inconclusive [cytotoxic, single point].

For `CC(O)(c1ccccc1)c1nc(-c2csc3ccccc23)cs1` (centres undefined), which Potency is on record?
Its Potency is inconclusive [cytotoxic, single point].

Which Potency does the source give for `O=C(/C=C/c1cccs1)N1CCC2(CC1)Oc1ccc(Cl)cc1C(=O)C21CC(c2cccnc2)=NO1` (centres undefined) here?
Its Potency is inconclusive [cytotoxic, single point].

Which Potency does the source give for `CN(C)CCNc1ncnc2c1sc1nc(N3CCCC3)c3c(c12)CC(C)(C)OC3` here?
The Potency was inconclusive [cytotoxic, single point].

For `COCCNC(=O)CSc1cc(=O)n(C)c2cc(Cl)ccc12`, which Potency is on record?
The Potency was “inactive”.

Which Potency does the source give for `COc1cccc2sc3cc(C#CC4(O)CCCCC4)ccc3c(=O)c12` here?
The Potency was inconclusive [cytotoxic, single point].

Which Potency does the source give for `COc1cc2c(cc1OCc1ccccc1)/C(=C/C(=O)OCc1ccccc1)OC2` here?
The Potency was “inactive”.

With `COCCNC(=O)c1ccc2c(c1)nc(C)n2-c1cccc(F)c1` as the compound, how does the Potency read?
Its Potency is “inactive”.

Which Potency does the source give for `CCOC(=O)C1=C(N)Oc2cc(O)ccc2C1c1cccnc1` (centres undefined) here?
Its Potency is “inactive”.

With `CC(NC(=O)CN(c1cccc(C(F)(F)F)c1)S(=O)(=O)c1ccc(Cl)c([N+](=O)[O-])c1)c1ccccc1` (centres undefined) as the compound, how does the Potency read?
Its Potency is active: 23.1 µM.

With `Cc1ccc(/C=N\NC(=O)C2CN(S(=O)(=O)c3ccccc3)CCN2S(=O)(=O)c2ccccc2)cc1` (centres undefined) as the compound, how does the Potency read?
The Potency was “inactive”.

For `O=C(/C=C/c1ccccc1)COC(=O)c1ccccc1`, which Potency is on record?
Its Potency is inconclusive [cytotoxic, single point].

Which Potency does the source give for `Cc1ccc(S(=O)(=O)N(CC2CO2)c2cccc([N+](=O)[O-])c2)cc1` (centres undefined) here?
Its Potency is inconclusive [cytotoxic, single point].

Which Potency does the source give for `Cc1ccc(S(=O)(=O)N2[C@H](CC(=O)c3cccc4ccccc34)OC[C@@H]2C)cc1` here?
The Potency was inconclusive [cytotoxic, single point].

Which Potency does the source give for `CN(C)CCNc1oc(COc2ccc(-c3ccccc3)cc2)nc1C#N` here?
Its Potency is inconclusive [cytotoxic, single point].

For `COc1cc(CNCCO)cc(Cl)c1OCc1ccccc1Cl`, which Potency is on record?
Its Potency is inconclusive [cytotoxic, single point].

Which Potency does the source give for `CCCc1cc(=O)oc2cc(OCC(=O)NCC(O)c3ccccc3)ccc12` (centres undefined) here?
Its Potency is “inactive”.

For `CSc1cccc(NC(=O)NCc2cccc(CNC(=O)Nc3cccc(SC)c3)c2)c1`, which Potency is on record?
Its Potency is active: 23.1 µM.

With `CC(=O)c1ccc(-c2cnc3c(NC=O)cc(-c4ccc(C(=O)N5CCOCC5)cc4)cn23)cc1` as the compound, how does the Potency read?
The Potency was inconclusive [cytotoxic, partial curve].

For `Cc1cc(Br)ccc1OCC(=O)NNC(=O)CCc1ccccc1`, which Potency is on record?
Its Potency is inconclusive [cytotoxic, single point].

With `CCOC(=O)C1CCCN(C(=O)CSc2ccc(Br)cc2)C1` (centres undefined) as the compound, how does the Potency read?
The Potency was “inactive”.

Which Potency does the source give for `COc1ccc2cc(C(=O)C3CCCN(Cc4cnc(C)s4)C3)ccc2c1` (centres undefined) here?
Its Potency is inconclusive [cytotoxic, single point].

With `COc1ccc(-c2ccc(CN3C(CC(C)C)C(=O)N(Cc4cn(CC5CCCCC5)nn4)CCS3(=O)=O)cc2)cc1` (centres undefined) as the compound, how does the Potency read?
The Potency was inconclusive [cytotoxic, single point].

For `O=C(/C=C/c1ccccc1Cl)c1cccnc1`, which Potency is on record?
The Potency was inconclusive [cytotoxic, single point].

Which Potency does the source give for `CC(=O)Nc1ccc(-c2ccnc3c2CC(C)(C(=O)NCc2ccc(N(C)C)cc2)O3)cc1` (centres undefined) here?
The Potency was inconclusive [cytotoxic, partial curve, poor fit].

For `O=C(Nc1ccc(O)cc1)c1ccc(NC(=O)c2cccs2)cc1`, which Potency is on record?
Its Potency is active: 9.2 µM.

With `CCN(CC)S(=O)(=O)c1cccc(C(=O)N/N=C/c2ccccc2OCC(=O)O)c1` as the compound, how does the Potency read?
Its Potency is “inactive”.

Which Potency does the source give for `CCOc1ccc2nc(SC3CC(=O)N(c4ccc(OC)cc4OC)C3=O)sc2c1` (centres undefined) here?
Its Potency is inconclusive [cytotoxic, single point].

For `CC1CCN(C(=S)NC(=O)c2ccc(C(C)(C)C)cc2)CC1`, which Potency is on record?
Its Potency is “inactive”.

For `C/C(=N\NC(=O)C(C)Oc1ccc([N+](=O)[O-])cc1)c1ccccn1` (centres undefined), which Potency is on record?
Its Potency is active: 2.24 µM.

With `COc1ccc(OCCN2CCC(C(=O)NC(c3ccc(F)cc3)c3ncccc3C)CC2)cc1` (centres undefined) as the compound, how does the Potency read?
The Potency was inconclusive [cytotoxic, single point].

With `CC(C)(C)c1ccc(C(O)c2ncc(-c3cccc(F)c3)[nH]2)cc1` (centres undefined) as the compound, how does the Potency read?
Its Potency is inconclusive [cytotoxic, single point].

For `COC(=O)c1ccc(NCc2cc(O)ccc2O)cc1O`, which Potency is on record?
The Potency was inconclusive [cytotoxic, single point].

For `Fc1ccc(-c2nc3c(-c4ccc(Cl)cc4)cnn3cc2CCN2CCOCC2)cc1`, which Potency is on record?
Its Potency is inconclusive [cytotoxic, single point].

For `CC(=O)O[C@H]1C[C@@]2(C)[C@@H](C[C@@H](O)[C@H]3[C@@]4(C)CC[C@@H](O)[C@@H](C)C4CC[C@@]32C)/C1=C(\CCC=C(C)C)C(=O)O` (some centres undefined), which Potency is on record?
The Potency was inconclusive [rising, single point].

Which Potency does the source give for `CCOc1ccc(NC(=O)Cn2nnc(C(=O)NCc3ccco3)c2N)cc1` here?
The Potency was inconclusive [cytotoxic, single point].

For `COc1ccc(NC(=O)C(C)N=C2NS(=O)(=O)c3ccccc32)cc1S(N)(=O)=O` (centres undefined), which activity, negative = less viability is on record?
The activity, negative = less viability was inactive: 8.78% [at 9.24 µM].

With `O=C(O)C1CC=CCC1C(=O)Nc1ccc(S(=O)(=O)N2CCCc3ccccc32)cc1` (centres undefined) as the compound, how does the Potency read?
The Potency was inconclusive [cytotoxic, partial curve].

For `O=C(O)c1ccc(/C=N/n2cc(-c3ccccc3)[nH]c2=S)cc1`, which Potency is on record?
Its Potency is “inactive”.

For `CC(O)COc1ccc(/C(=N/O)c2ccccc2)cc1` (centres undefined), which Potency is on record?
The Potency was “inactive”.

Which Potency does the source give for `COc1ccc(OCCCC(=O)Nc2nc(-c3ccccn3)cs2)cc1` here?
The Potency was inconclusive [cytotoxic, partial curve].
